Measurements from PubChem BioAssay AID743279 (National Center for Advancing Translational Sciences (NCATS), 2014).
The campaign covered roughly 360,000 compounds. About 17,000 (4.7%) were called active. The inconclusive results got no clear call from the source; some entries with a clear call stand among them for comparison. No stated cut-off is given here; in the data, active means activity change below about -50%; inconclusive means mostly about -30% to -49%; inactive means weaker than that. More than one record can exist for a structure, and the calls need not agree.

Assay: qHTS for Inhibitors of Inflammasome Signaling: IL-1-beta AlphaLISA Primary Screen
Conditions: THP-1 LPS/ATP IL-1B secretion, 16 h; at 57.5 µM, active compounds read low
In short: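 Secreted IL-1B measured by AlphaLISA bead assay after 16 h compound exposure of THP-1 cells; compounds (final up to 57.5 uM) added 1 h before LPS (250 ng/mL) and ATP (1.25 mM) stimulation; lower signal means less secretion.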
On the % scale 0 is the no-effect control and ±100 the full control effect.

SMILES | activity change
O=C(NCCc1ccc(F)cc1)Nc1ccc2c(c1)OCO2 | inconclusive: -31.6%
Nc1ccc(S(=O)(=O)Nc2ccc(C(=O)c3ccccc3)cc2)cc1 | inconclusive: -30.8%
COc1ccc(C(=O)C2CCCN(Cc3cccn3-c3nccs3)C2)cc1F (stereo not drawn) | active: -83.8%
O=C1c2[nH]c3ccccc3c2CC1N1C(=O)c2ccccc2C1=O (stereo not drawn) | inactive: -7.24%
Cn1c(=S)oc2ccccc21 | inactive: 3.26%
CC(C)c1ccc(/C=N/Nc2cc(N3CCOCC3)nc(N3CCOCC3)n2)cc1 | inconclusive: -32.5%
O=C(Cc1cccs1)Nc1nnc(Cc2ccccc2)s1 | inactive: 42%
CCOc1ccc(Oc2ccc(Cl)cc2NC(=O)C2=COCCO2)cc1 | inconclusive: -46.1%
Cc1onc(-c2ccccc2Cl)c1C(=O)N1CCN(c2ccc(F)cc2)CC1 | inactive: 4.27%
Cc1cc(NC(=O)c2ccc3c(c2)OCCO3)ccc1NC(=O)c1ccco1 | inconclusive: -48.9%
C[C@H]1CCCCO[C@H](CN(C)CC2CCCCC2)[C@@H](C)CN([C@@H](C)CO)C(=O)c2cc(NS(=O)(=O)c3ccccc3)ccc2O1 | inconclusive: -39.3%
O=C(Nn1c(SCc2ccccc2F)nc2ccsc2c1=O)c1ccccc1 | inconclusive: -46.3%
Cc1ccc(/C=N/NC(=O)CN(Cc2ccccc2)S(=O)(=O)c2ccc3c(c2)OCCO3)cc1 | inconclusive: -39%
Cc1cc(C)n2nc(SCc3nnc(-c4ccccc4Br)o3)nc2n1 | inactive: 26.2%
Cc1nc(-c2ccc(S(=O)(=O)Oc3ccccc3Cl)s2)cs1 | inconclusive: -45.8%
CCCCCCC1CC(CSC(=N)N)OC1=O (stereo not drawn) | active: -83.4%
CCN(CC)c1ccc(/C=C(\C#N)c2ccccn2)cc1 | inconclusive: -39.2%
Cc1cc(N2CCOCC2)n2nc(C)c(-c3ccccc3)c2n1 | inconclusive: -37.2%
O=C(Cc1nc(-c2ccc(Br)s2)cs1)NCCN1CCOCC1 | inconclusive: -31.3%
Nc1ccc(N=Nc2ccccc2Cl)c(N)n1 | inconclusive: -40.7%
Cc1ccccc1C(=O)Nc1nnc(CC(=O)N/N=C/c2cn(Cc3ccccc3)c3ccccc23)s1 | inactive: 9.8%
COc1cc(C=O)ccc1OCCOCCOc1ccc(Cl)cc1Cl | inconclusive: -35.5%

SMILES | activity change
COc1ccc(N2CCN(c3nc4c(c(=O)n(C)c(=O)n4C)n3CCCc3ccccc3)CC2)cc1 | inactive: 31.9%
CN(C)CCN(C)Cc1ccccc1Sc1cccc2ccccc12 | active: -105%
COC(=O)c1c(NC(=O)c2ccc([N+](=O)[O-])o2)sc2c1CCN(C(C)C)C2 | active: -96.6%
O=C(Nc1ccc(S(=O)(=O)C(F)F)cc1)c1cccc(S(=O)(=O)N2CCOCC2)c1 | inconclusive: -37.4%
CCCCCCSc1cc(-c2nc3ccc(C)cn3c2NCc2ccccc2)ccc1OC | active: -50.9%
CCOP(=O)(c1ccccc1)c1nc(-c2ccc(F)cc2)oc1N1CCCCC1 (stereo not drawn) | inconclusive: -50%
CN(C)C(=O)c1ccc(SC(=S)NCc2ccccc2)cc1 | inconclusive: -33.8%
Cc1ccc(-c2csc(NC(=O)c3cccs3)n2)cc1 | inconclusive: -35.6%
CC(C)c1ccc(CNc2cc(N3CCCC3)ccc2[N+](=O)[O-])cc1 | inconclusive: -33.7%
O=C1C(=Cc2ccncc2)CCCc2ccccc21 | inconclusive: -43.2%
CCc1cc2c(=O)c(-c3nc4ccccc4n3C)c(C(C)C)oc2c(CN2CCN(C)CC2)c1O | inactive: -7.83%
Cc1ccc(NC(=O)COc2ccc3c(c2)OCO3)c(Cl)c1 | inconclusive: -35.2%
COc1ccc(-c2csc(N(CC(C)C)C(=O)c3ccco3)n2)cc1 | inactive: -5.66%
Cc1ccc2nc(SCC(=O)Nc3cccc([N+](=O)[O-])c3)[nH]c2c1 | inconclusive: -35.7%
CC(C)CN1C(=O)C(=O)N(CC(=O)NCc2ccc3c(c2)OCO3)C1=O | inactive: 11.9%
COc1ccncc1-c1ccc(C2=CC(=O)CC(C)(C)C2=O)cc1 | inactive: 12.9%
Cn1cccc1C1C=C(c2ccc(C(C)(C)C)cc2)Nc2ncnn21 (stereo not drawn) | inactive: -15.8%
Cc1cc(Cl)ccc1NC(=O)COC(=O)c1cc([N+](=O)[O-])ccc1N1CCOCC1 | inconclusive: -35.4%
O=C(NC1CCN(Cc2ccc(Cl)cc2)CC1)c1cn(-c2ccccc2)nc1-c1cccnc1 | inconclusive: -34%
O=C1c2ccccc2C(Nc2ccccc2)N1Cc1ccc2c(c1)OCO2 (stereo not drawn) | inconclusive: -48%
CCc1ccc2oc(C(=O)N3CCN(c4ccc(OC)cc4)CC3)cc(=O)c2c1 | active: -84.4%
O=C(CCn1nc(-c2ccc(Cl)cc2)ccc1=O)N1CCN(c2ccccn2)CC1 | inconclusive: -49.2%

SMILES | activity change
CN1CCN(c2nc(-c3cccs3)nc3ccccc23)CC1 | active: -59%
CCn1c(=O)cc(SCC(=O)N2CCN(C3CCCCC3)CC2)c2ccccc21 | inconclusive: -43.1%
OC(c1ccc(F)c(F)c1)c1nc(-c2csc3ccccc23)cs1 (stereo not drawn) | inactive: 4.33%
COc1nc(NCCc2ccc(OC)c(OC)c2)nc(OC)n1 | inactive: -16.9%
Cc1ccc(Cl)cc1N1CCN(S(=O)(=O)c2c(C)[nH]c(C)c2C(=O)N2CCCCC2)CC1 | inconclusive: -35.2%
Oc1ccc(-c2nc3ccccc3nc2-c2ccc(O)cc2O)c(O)c1 | inconclusive: -43.5%
CCCCC1=CC2=C(c3ccco3)C(=O)C(C)(OC(=O)c3ccc(OC)cc3)C(=O)C2=CN1Cc1ccc2c(c1)OCO2 (stereo not drawn) | inconclusive: -40.9%
COc1ccc2nc(C)cc(SCC(=O)N/N=C/c3ccc(O)c(O)c3)c2c1 | inconclusive: -35.6%
Cc1ccc(-c2cc(-c3ccccc3)nc(Cl)n2)cc1 | inactive: 43.5%
COc1ccc(CC(=O)Nc2ccc(C(N)=O)cc2)cc1 | inconclusive: -45.1%
CN1CCN(c2ccc(NC(=O)N3CCc4ccccc43)cc2)CC1 | inactive: -20%
COc1ccccc1CN(Cc1cc2c(C)ccc(C)c2[nH]c1=O)Cc1nnnn1Cc1ccco1 | active: -70.4%
O/N=C/c1ccc2cccc(O)c2n1 | inactive: 0%
O=C(c1ccccc1)N1CCC(c2nc(-c3ccc(S(=O)(=O)NCC4CCCO4)cc3)no2)CC1 (stereo not drawn) | active: -72%
Cc1ccc(C2=NN(Cc3nnc(-c4ccccc4)o3)C(=O)SC2)cc1 | inactive: -5.46%
O=C(Nc1ccnn1C1CCN(C(=O)c2ccccc2C(F)(F)F)CC1)C1CC1 | inactive: 13.8%
c1ccc(-c2nc3c4ccccc4ccn3c2CN2CCCCC2)cc1 | active: -71.5%
CN1CCN(CC(=O)Nc2ccccc2Sc2ccccc2)CC1 | inconclusive: -42.2%
Cc1cnccc1CN(C)Cc1nc(Cc2ccccc2Cl)no1 | inactive: -8.5%
O=C(C1=C[C@H](C2CCCCC2)C[C@H](OCCCCO)O1)N1CCN(Cc2ccc3c(c2)OCO3)CC1 | inconclusive: -32.3%
CCn1cc(C(=O)Nc2ccc(C)c([N+](=O)[O-])c2)cn1 | inactive: -20.1%
CCOC(=O)c1c(C)n(C)c2cc([N+](=O)[O-])c(O)c([N+](=O)[O-])c12 | inconclusive: -39.8%

SMILES | activity change
COc1cc(NC(=O)c2ccc(C)cc2)c(OC)cc1NC(=O)CN1CCCCC1 | inconclusive: -35%
CCCc1[nH]n(-c2nc3ccccc3s2)c(=O)c1C=NCC1CCCO1 (stereo not drawn) | inconclusive: -31.6%
COc1ccc(S(=O)(=O)N2CC3CCCN3c3ccc(C(F)(F)F)cc32)cc1 (stereo not drawn) | inconclusive: -33.6%
COc1ccc(OC)c(-c2c(=O)n(OCc3ccccc3Br)c3ccccc3[n+]2[O-])c1 | inconclusive: -33.1%
O=C(CSc1nc2nn(-c3ccccc3)c(=O)c-2c2n1CCCCC2)Nc1ccc(F)cc1F | active: -56.2%
C1CCN(CC2CCCCN2)CC1 (stereo not drawn) | inactive: 4.39%
CN(C)S(=O)(=O)c1ccc(NC(=O)CN2CCC(Cc3ccccc3)CC2)cc1 | inactive: 21.1%
COc1ccc(NC(=O)CN(C)C(=O)c2ccc(NC3CC3)c([N+](=O)[O-])c2)cc1 | inconclusive: -31.8%
c1ccc2c(c1)CCCC2C1=NCCN1 (stereo not drawn) | inactive: 3.13%
COc1ccc(C2=NN(C(=O)CN3CCCC3)C(c3ccc(OC)cc3)C2)cc1 (stereo not drawn) | active: -62.3%
COc1ccc(/C=N/N(Cc2ccccc2)c2ccccc2)cc1O | active: -86.2%
COC(=O)Nc1ccc(SCC(=O)c2ccc(Cl)cc2)cc1 | active: -61.9%
Cc1ccc(C(NC(=O)N2CCOCC2)=C(Cl)Cl)cc1F | active: -101%
Cc1ccc(C(=O)Cn2nnc3ccccc32)cc1C | inconclusive: -35%
CC1(CC(=O)N/N=C/c2cc3c(cc2Br)OCO3)OCCO1 | inconclusive: -47.3%
CCCn1ncc(CN2CCC(CO)(CC3CCCCO3)CC2)c1C (stereo not drawn) | inactive: 2.08%
c1cn2c(NC3CCCC3)c(-c3ccc(N4CCOCC4)cc3)nc2cn1 | inactive: 13.9%
Cc1ccc(NC(=O)CN(C)C(=O)Cn2ncc(Cl)c(Cl)c2=O)cc1 | active: -105%
O=C(CCCc1c[nH]c2ccccc12)Nc1ccc2ccccc2c1 | active: -85.2%
COc1ccc(/C=C/C(=O)Nc2ccc(OC)cc2[N+](=O)[O-])cc1 | inconclusive: -30.9%
CCOc1ccc(C(C(=O)NCC2CCCO2)N(C(=O)c2snc(C(N)=O)c2N)c2ccccc2F)cc1 (stereo not drawn) | active: -71.9%
CC1(C(=O)NS(=O)(=O)c2ccc(Cl)cc2)CCN1C(=O)c1ccccc1CCc1ccccc1 (stereo not drawn) | inactive: -3.35%
